From patent US9668986B2, “Ophthalmic, intra-articular or intravesical preparations containing N-acyl-ethanolamines” (EPITECH GROUP S.R.I., priority 2014, dated 2017)

What was measured:
[1] = minimum amount of cyclodextrin
[2] = polymeric emulsifier present

CCCCC/C=C\C/C=C\C/C=C\CCCCC(=O)NCCO [gamma-LNEA, N-γ-linolenoylethanolamine]
minimum MβCD/NAE weight ratio to obtain the solubilization of the NAE [1]: ≥ 180:1
MβCD/NAE weight ratio giving stable solutions with polymeric emulsifier [2]: ≥ 180:1
